Experimental data: the supplement of paper PMC10126150
Sequences with one replicate were seen in a single cluster, so their values are uncertain.

System: ATP
Test: switch fluorescence ratio, 500 uM ATP over buffer (Cy3 cluster intensity, sum of 5 cycles each) (fold (ratio)); higher = stronger signal-on switching upon ATP binding; sequences stand for … in TCGTCGGCAGCGTCAGATGTGTATAAGAGACAGTTTTTTTTTTTTTTTTTTTTTTTTT…TC
Conditions: aptamer strand: ATP DNA aptamer (quencher-CACCTGGGGGAGTATTGCGGAGGAAGG + anchor), 100 nM annealed; ATP concentration: 500 uM; one replicate
Procedure, shortened: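 The fluorescence ratio divides summed target-cycle Cy3 intensity by summed buffer-cycle Cy3 intensity for each cluster and is averaged per switch-domain sequence. Cy3-labelled switching-strand clusters on a modified Illumina MiSeq flow-cell were annealed to 100 nM quencher-labelled ATP aptamer, then imaged in selection buffer and again after 15 min with 500 uM ATP at 22 °C. Five such cycles were run, with NaOH stripping and re-annealing between them, and clusters outside 100-1000 RFU were excluded.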
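Further: ATP exposure 15 min at 22 °C before imaging.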

Sequence	switch fluorescence ratio
CCAGGGCATG	1.06
CAAATTCTTA	1.02
TTAACTGTGT	0.926
CTTCTTGGTC	1
ACAAGGATTA	1.01
TCTAGTCCAG	0.981
TGCCAGGGCG	0.992
GCTAAATCA	1.02
AACGGTACGT	0.979
ATACAGACAC	1.21
GCCCTTGATT	0.986
TAGCGGTCTG	1
ATACAATGGT	0.97
AAGAGGAATC	0.978
CAAATCCATG	0.968
CGAGGGCTCG	0.997
CGGTAGGGAA	1.07
GAGGTGGGGT	1.01
GGGACCGGAG	1.02
GACAAAGGAG	0.973
GTAACCAGTT	1.03
CTCAAGGTCG	0.982
CAGGGGTCCC	1
GGGCGATAGA	1.05
ACGTGCTAAG	1
CCGGAAATTA	1.02

Sequence	switch fluorescence ratio
TGTCGGCTAC	6.04
ACACTGGACA	1.21
TACTTACCGG	1.11
CACGGGGCAG	1.06
AGAGTTCCGT	0.995
GCCCCATCAA	1.04
CTCATGGGTC	1.08
AATGTAACGA	1.05
TGCATACCAG	1.05
TTGATGAGCT	1.01
CTATCTCGTC	0.981
ATCTGGTCT	1.03
AGGTACGCAA	3.84
CAAGTAAGCA	1.03
GCCAGGCC	1.01
AGTCGCAACA	1.06
CTCGTACCAG	0.983
AAAGTGCTAC	1.03
CCGCTCGGAA	2.64
GTTGTTGGGC	1.04
CATACCAAAC	1.94
GTTGATGGCA	1.06
TGGTATCACG	0.971
GCATCGTTCT	1.16
GCGTATATAG	1.01
TGAAAAGGT	0.98

Sequence	switch fluorescence ratio
TAACGTAATC	3.06
GGCAGTGATT	0.99
GTGTGCCACG	0.958
AGGCGTCATG	1.03
GGGCGTTGC	0.988
TCGTCGTC	0.971
TTTGTGAGAT	1.01
AGTGGAGCCA	0.979
ACTGCGTAGT	1.01
TTTTAATCTA	1.05
CAGGCCCTG	0.993
AGGTACGTAG	1.02
ATTAGTGAAT	0.975
CCGTGGCCT	1.04
GGTAAAGAG	1.54
TGAATAAAAG	0.998
TTCGGGCAAA	0.986
CCAAATGCTC	1.66
ATACTTCCTG	1.19
TGGCGCTAGA	1.01
TGCGCACGAT	1.09
CCTTTTCTCA	0.94
GCGTCGGGTA	1.02
GATGGGTGCA	0.993
CGTCATCCCG	1.14
GGGCGCCTGA	0.964

Sequence	switch fluorescence ratio
ACGAAATAAT	1.02
CCTGACGTAT	1.03
CCATCGGTA	1.02
TGCGGTGTAC	1.27
GTCATTTCGC	1
GTGCCGCGGA	0.966
TTAGGATTGT	0.977
TTAGATCTTA	0.98
CGAATAGAGA	0.965
CGCCATTAGC	1.05
TTCCACAGGT	2.14
AAGTCGATAG	1.01
CAGGACCGTA	1.03
TAAAAGATAT	1
CCCCGGGGTA	0.987
GCGGGCATGA	1.03
ACGTAGCCGC	1.18
CACAGCGCCA	1.01
ACGAACCAAA	1.31
ACTTGTCTCT	1.02
CATGATACTA	1.01
ATTATCACG	1.03
GGACGCGCTC	1.25
CTGTTACGAT	1.01
GGCTCCCGGT	1.05
AATCGGGCTT	0.994

Sequence	switch fluorescence ratio
CCTCTGTAGT	3.9
TGCGAGGCGG	1.01
GTAGGGGGAT	1.04
AGTCCTTGTT	1.01
TCCTTTTGGT	0.995
CATTGGTCAC	1.01
CCACTGATGC	1.31
TACAGTTCCT	1.05
GATCGTAGT	0.977
GTATTAAAAC	1.02
CAGTATTTCG	0.983
GTCATAAGG	1.01
CATCGTTGTG	1.01
CACGTCAGAT	1.12
TGAGGATGCC	1.06
CGTATGAGTA	1.01
CCTCTCCTCG	1.57
GATTGCAGGT	0.99
AACGTAAGAG	1.11
ATTGCCACG	1.03
GTGGAATCGG	1.01
CGGTATGAGC	0.968
GCAGAACGGA	0.976
CGCTAATAAT	1.58
CGCGACATTA	0.978
ATATCATCAA	0.967

Sequence	switch fluorescence ratio
GTCTCTAGGA	0.963
GTGCAAGTAA	1.06
CTACGGGCTC	1.2
GGCGCCGATC	1.03
GCTCTGCCT	1.09
TCCCATTTT	1.02
TCCCCCTGGG	1.39
GGGTCGAGCA	1
CCGACTGGCG	1.14
CAACGGGCTG	0.939
AAAGGGAATC	1.02
TTTCACCCTG	1.05
TTATTCAACT	1.01
TAACCTCTG	1.02
CAAATTGAGT	1.03
TGGGACTGCA	1.03
CTCGTTCAGA	1.01
CTAATTACGG	1.05
TTTGTTCATG	0.983
TATTCCCCCT	1.18
TGCCATTTGA	0.99
CGTTTAATCC	1.05
GCGGGCTACT	0.972
TTGGAAATCG	0.983
GTCGGGCAGG	1.01
TAGCCCCGTC	0.965

Sequence	switch fluorescence ratio
TACTATAATA	1.01
GTGACTTGAG	0.952
GCCTGCGTTG	1
TAATATATGA	0.955
AAGGCTAGTG	0.98
TAGAACATA	1.01
ATCGCATGTG	0.982
GGGCTTGACC	1
ATGAGTCCCG	1.03
CTGCAAGAAG	1.01
TGGTAGTGAA	1
AAGTTTCGTG	1.03
AATGTACACT	1.06
CGATGAAG	1
ACAATGGTTC	1.05
CCGGTTGGCC	0.997
ACTCACCGTC	1.3
GGTCGCAGAA	1.06
ACAGTATCTG	1.03
AATAGCGAG	1.01
TTGAGGAGG	0.979
TGTTGCTTGT	0.998
ATGTGTGAGC	1
GCTTGTTTAG	1.01
CCGAGGAGCC	1.03
ACCTAAATCA	1.02

Sequence	switch fluorescence ratio
GAAATGCAAC	1.43
CGATTGAAGG	1.03
TATAAAATTT	0.973
ATGCTACTGT	1.05
ACGTGTCGG	1.01
CTACGTTCCT	1.44
AGTCAAACTC	1.11
ACACCAGCG	1.23
ATCCTCTACA	1.07
TACTTTAGGA	0.987
GGTCATACAT	1.01
TCGAAGAACG	1.37
AATGCTTGTA	0.999
TCCTCCTATT	1.44
TACAGCGGGA	1.04
TAGTTGGAGC	1.05
CACTCGAAAC	1.07
ACGGCGTGCG	0.993
GGAGACCCGA	1.03
